Where “and” joins values, the source holds several entries; their conditions need not be identical. Equal entries are not always repeated. The campaign covered roughly 220,000 compounds. About 16,000 (7.3%) were called active. This list was built around the results that the source calls inconclusive (neither active nor inactive); the mix of calls is not that of the screen. Calls follow the shape of the dose curve; as a rule, active = well fitted inhibition curve with a large enough effect (not every such curve was filed as active); inconclusive = small, poorly fitted or top-dose-only effect, or another doubt; inactive = no such curve, though single readings can be large or run the other way. Potencies of inconclusive entries are doubtful fits and often do not repeat.
target: Aldehyde dehydrogenase 1A1 (Homo sapiens) (UniProt P00352); assay: qHTS Assay for Inhibitors of Aldehyde Dehydrogenase 1 (ALDH1A1); conditions: Purified ALDH1A1, NADH fluorescence, propionaldehyde substrate; series mostly up to 75.3 µM; activity, negative = inhibition: at the top concentration;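 as to activity, negative = inhibition: plate controls were no enzyme wells and a reference inhibitor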
Chain of UniProt P00352 (P00352 whole entry, looked up): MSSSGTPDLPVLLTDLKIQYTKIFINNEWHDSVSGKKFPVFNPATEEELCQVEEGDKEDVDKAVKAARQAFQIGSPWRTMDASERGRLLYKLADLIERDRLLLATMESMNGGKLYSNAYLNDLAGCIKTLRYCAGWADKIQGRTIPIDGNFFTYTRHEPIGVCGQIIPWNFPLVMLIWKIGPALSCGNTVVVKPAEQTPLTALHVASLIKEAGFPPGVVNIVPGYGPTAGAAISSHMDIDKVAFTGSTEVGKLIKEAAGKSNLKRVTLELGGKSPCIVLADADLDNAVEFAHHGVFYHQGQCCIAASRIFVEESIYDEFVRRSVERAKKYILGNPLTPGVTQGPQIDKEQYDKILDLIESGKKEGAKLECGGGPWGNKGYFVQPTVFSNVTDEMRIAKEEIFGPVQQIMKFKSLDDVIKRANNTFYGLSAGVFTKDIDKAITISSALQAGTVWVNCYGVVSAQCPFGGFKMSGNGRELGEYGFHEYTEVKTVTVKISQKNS
Potency is read from the fitted curve at half-maximal effect; tags tell the direction and shape of the fitted curve.

| Compound | Potency | activity, negative = inhibition |
| --- | --- | --- |
| COc1ccc(CNC(=O)c2cnc3scc(C)n3c2=O)cc1 | inconclusive: 25.1 µM [inhibitor, partial curve] | – |
| Cc1ccc2nc(-c3ccc(NS(=O)(=O)c4ccc(F)cc4)cc3)sc2c1 | inconclusive: 28.2 µM [inhibitor, partial curve] | – |
| CC1=C(C(=O)N2CCOCC2)C(c2cc(C)ccc2C)NC(=S)N1 (stereo not given) | inconclusive: 35.5 µM [inhibitor, single point] | – |
| COc1ccccc1N1CCN(CCn2c(=O)c3c(c4ccccc4n3C)n(C)c2=O)CC1 | – | inactive: 14.9% |
| Cc1nc(C(=O)N(C)C)nn1-c1cc(Cl)cc(Cl)c1 | inconclusive: 44.7 µM [inhibitor, single point] | – |
| COc1ccc(NCc2nnc(SCC(=O)c3ccc(OC)cc3)o2)cc1 | active: 15.8 µM | – |
| NC(=O)C(=O)NN=C1C2CC3CC(C2)CC1C3 | – | inactive: -0.459% |
| O=C(Nc1nccs1)c1ccc(S(=O)(=O)N2CCCCC2)cc1 | inconclusive: 35.5 µM [inhibitor, single point] | – |
| CCOC(=O)C1=C(Cc2ccc(OC)cc2)C(=O)c2ccccc2C1=O | inconclusive: 20 µM [inhibitor, partial curve] | – |
| C=CCOn1c(=O)c(-c2ccc(OC)c(OC)c2)[n+]([O-])c2ccccc21 | inconclusive: 39.8 µM [inhibitor, single point] | – |
| CCC(C)Oc1cccc(C(=O)Nc2ccccc2N2CCOCC2)c1 (stereo not given) | inconclusive: 35.5 µM [inhibitor, single point] | – |
| COc1ccc(/C=C2\SC(=O)N(CC(=O)NNC(=O)c3ccccc3O)C2=O)cc1OC | inconclusive: 28.2 µM [inhibitor, single point] | – |
| CC(C)(CO)CNC(=O)CCc1nnc(C2(c3ccc(Cl)cc3)CCC2)o1 | inconclusive: 28.2 µM [inhibitor, single point] | – |
| COc1ccc(C(CC(=O)c2ccccc2)S(=O)(=O)c2ccccc2)cc1 (stereo not given) | inconclusive: 28.2 µM [inhibitor, single point] | – |
| CCC(O)CNC(=O)CCc1nnc(C2(c3ccc(Cl)cc3)CCC2)o1 (stereo not given) | – | inactive: 2.94% |
| O=P(O)(O)O[C@@H]1[C@H](O)[C@H](O)[C@@H](OP(=O)(O)O)[C@H](OP(=O)(O)O)[C@H]1O | – | inactive: 2.31% |
| Cc1ccc(C#N)cc1 | active: 31.6 µM | – |
| Cc1ccc(S(=O)(=O)NN2C(=O)c3ccccc3NC2(C)C)cc1 | inconclusive: 28.2 µM [inhibitor, partial curve] | – |
| CNC(=O)C(=O)NCC1OCCN1S(=O)(=O)c1ccc([N+](=O)[O-])cc1 (stereo not given) | inconclusive: 39.8 µM [inhibitor, single point] | – |
| COc1ccc(OC)c(/C=C2\SC(=S)N(N3CCOCC3)C2=O)c1 | inconclusive: 2.24 µM [inhibitor, full curve] | – |
| Cc1cc(C2=NNC(=NC3CC3)SC2)c(C)n1-c1ccccc1F | active: 8.91 µM | – |
| Clc1ccc2oc(-c3ccccc3)cc(=NCCCN3CCOCC3)c2c1 | inconclusive: 35.5 µM [inhibitor, single point] | – |
| CCCCCCCCCS(=O)(=O)N/N=C/c1cccc([N+](=O)[O-])c1 | active: 0.316 µM | – |
| Cc1cc(NC(=O)C(=O)NCCN2CCN(C(=O)c3cccs3)CC2)ccc1Br | – | inactive: 5.68% |

| Compound | Potency | activity, negative = inhibition |
| --- | --- | --- |
| CCOC(=O)/C(=N/Nc1ccc(OC)cc1)Sc1nnc(CCc2ccccc2)n1-c1ccccc1 | inconclusive: 31.6 µM [inhibitor, single point] | – |
| Cn1[nH]c(CSc2ccc(Cl)cc2)cc1=O | active: 1.78 µM | – |
| O=C(O)C1C2CCC(O2)C1C(=O)NCc1ccc(Cl)cc1 (stereo not given) | – | inactive: 2.12% |
| c1ccc2c(N3CCCCC3)nc(N3CCCC3)nc2c1 | – | inactive: -4.63% |
| CC1Cc2ccccc2N1C(=O)CSc1ccccc1 (stereo not given) | active: 17.8 µM | – |
| O=C(NC(NC(=S)Nc1c(Cl)cccc1Cl)C(Cl)(Cl)Cl)OCc1ccccc1 (stereo not given) | active: 10 µM | – |
| Oc1csc(Cc2nc(-c3ccccc3F)cs2)n1 | active: 17.8 µM | – |
| CCN(CC)c1ccc(N2C(=O)C3CCCCC3C2=O)cc1[N+](=O)[O-] (stereo not given) | inconclusive: 28.2 µM [inhibitor, single point] | – |
| COc1ccc(C(=O)CCNc2cccc(Cl)c2)cc1 | active: 3.16 µM | – |
| O=C(N/N=C\c1coc2ccccc2c1=O)c1ccco1 | active: 1.58 µM | – |
| CC(=O)Nc1ccc(S(=O)(=O)/N=C2/NC(=O)/C(=C\c3ccco3)S2)cc1 | inconclusive: 28.2 µM [inhibitor, single point] | – |
| COc1ccc(S(=O)(=O)N(C)C)cc1NCC(=O)Nc1ccc(Br)cc1F | active: 11.2 µM | – |
| O=S1(=O)CCC(NC(=S)SCc2ccccc2Br)C1 (stereo not given) | inconclusive: 28.2 µM [inhibitor, single point] | – |
| Cc1cc(N2CCCC2)ccc1/C=C1/C(=O)N(C)C(=S)N1C | inconclusive: 39.8 µM [inhibitor, single point] | – |
| O=C(COc1cccc2ccccc12)N/N=C/c1ccncc1 | – | inactive: 2.93% |
| O=S(=O)(Nc1ccc(N=Nc2ccc(O)c3ccccc23)cc1)c1ccccc1 | – | inactive: -0.62% |
| COC(=O)Cc1[nH]n(-c2nc3ccccc3s2)c(=O)c1C(C)=O | inconclusive: 44.7 µM [inhibitor, single point] | – |
| COCCNC(=O)c1cc(-c2ccccc2OC)on1 | inconclusive: 39.8 µM [inhibitor, single point] | – |
| N#Cc1nc(Cc2cccc3ccccc23)oc1N1CCCCC1 | inconclusive: 20 µM [inhibitor, single point] | – |
| Cc1ccc(O)c(N=Nc2ccccc2)n1 | inactive and inconclusive: 39.8 µM [inhibitor, single point] | – |
| CCC(CO)N=C1CC(C)(C)CC(=O)/C1=C(/O)CCCN1C(=O)c2ccccc2C1=O (stereo not given) | – | inactive: -2.83% |
| O=[N+]([O-])c1cc(C(F)(F)F)cc([N+](=O)[O-])c1NN=C1CCCCC1 | inconclusive: 20 µM [inhibitor, partial curve, poor fit] | – |
| COc1cc(OC)cc(C(=O)NCC(=O)OCC(=O)/C=C2/N(C)c3ccccc3C2(C)C)c1 | inconclusive: 39.8 µM [inhibitor, single point] | – |
| CCOC(=O)C1C(c2ccc(O)c(OCC)c2)NC(=S)NC1(O)C(F)(F)F (stereo not given) | inconclusive: 39.8 µM [inhibitor, single point] | – |

| Compound | Potency | activity, negative = inhibition |
| --- | --- | --- |
| CC1(C)CC(=O)C=C(Nc2ccccc2F)C1 | inconclusive: 39.8 µM [inhibitor, single point] | – |
| COc1ccccc1CNC(=O)CCN1C(=O)COc2ccc(C)cc21 | inconclusive: 39.8 µM [inhibitor, partial curve] | – |
| COC(=O)Nc1ccc(S(=O)(=O)N2CCCC(C(=O)N3CCCCC3)C2)cc1 (stereo not given) | inconclusive: 39.8 µM [inhibitor, single point] | – |
| Cc1c(N=Cc2cccs2)c(=O)n(-c2ccccc2)n1C | inconclusive: 39.8 µM [inhibitor, single point] | – |
| COc1ccc2c(c1)OC/C(=C\c1ccc(OC)c(O)c1)C2=O | active: 5.62 µM | – |
| CC(=O)NN1C(=O)c2ccccc2NC1c1ccoc1 (stereo not given) | inconclusive: 25.1 µM [inhibitor, partial curve] | – |
| O=C(c1ccco1)N1CCN(C(=O)C2CCN(S(=O)(=O)Cc3ccccc3)CC2)CC1 | inconclusive: 25.1 µM [inhibitor, single point] | – |
| Cc1cccc(C2Nc3ccccc3C(=O)N2c2ccccc2)n1 (stereo not given) | inconclusive: 37.7 µM [inhibitor, partial curve] | – |
| Cc1ccccc1NC(=S)/C(=C(\[O-])c1cc(C)n(Cc2ccccc2Cl)c1C)[n+]1ccccc1 | inconclusive: 31.6 µM [inhibitor, single point] | – |
| Cc1ccc(NS(=O)(=O)c2ccc(N3CCN(c4ccc(O)cc4)CC3)c([N+](=O)[O-])c2)c(C)c1 | active: 14.1 µM | – |
| Cn1cnnc1SCC(=O)c1ccc2c(c1)CCCC2 | active: 31.6 µM | – |
| Cc1ccc(-n2nc(C)c3c2NC2=C(C(=O)CC(C)(C)C2)C3c2ccccc2OCC(=O)O)cc1 (stereo not given) | inconclusive: 22.4 µM [inhibitor, partial curve] | – |
| Cc1c(NC(=O)COC(=O)COc2ccc(Nc3ccccc3)cc2)c(=O)n(-c2ccccc2)n1C | active: 22.4 µM | – |
| O=C(Nc1nccs1)c1ccc(-c2cccc([N+](=O)[O-])c2)o1 | inconclusive: 39.8 µM [inhibitor, single point] | – |
| O=C(COc1ccc(S(=O)(=O)N2CCCCC2)cc1)NCc1ccncc1 | active: 22.4 µM | – |
| COc1ccc2nc3sc(C(=O)NCCN4CCc5ccccc5C4)cc3cc2c1 | inconclusive: 25.1 µM [inhibitor, single point] | – |
| CC(=O)c1ccc(NC(=O)c2cc3nc4c(c(C(F)(F)F)n3n2)CCCC4)cc1 | inconclusive: 22.4 µM [inhibitor, single point] | – |
| CC(=O)c1ccc(N2CCN(C(=O)COc3ccc(F)cc3)CC2)c(F)c1 | inconclusive: 35.5 µM [inhibitor, single point] | – |
| O=C1CCCc2c1cc(C(=O)NC1CCSC1=O)c(=O)n2-c1ccccc1 (stereo not given) | inconclusive: 25.1 µM [inhibitor, partial curve] | – |
| O=C(c1cc(=O)[nH]c2ccccc12)N1CCN(c2ccccc2)CC1 | inconclusive: 17.8 µM [inhibitor, single point] | – |
| COc1ccc(NC(=O)CN2CCCN(S(=O)(=O)c3ccc(F)cc3)CC2)cc1 | inconclusive: 39.8 µM [inhibitor, single point] | – |
| CC1CCCC(NC(=O)COC(=O)[C@@H](NC(=O)c2ccco2)C(C)C)C1C (stereo not given in full) | inconclusive: 39.8 µM [inhibitor, single point] | – |
